Measured values taken from the GPR68 mutational scans of Howard et al. (2025).
Scores with a large standard error are left out. Two further conditions of the source, in which the scores hardly spread, are not listed. In variant names, del marks residues removed and ins residues inserted between the two positions. For part of these data: How much ogerin was present is not stated here.

B1: GPR68, Q15743 (parent)
chain: MGNITADNSSMSCTIDHTIHQTLAPVVYVTVLVVGFPANCLSLYFGYLQIKARNELGVYLCNLTVADLFYICSLPFWLQYVLQHDNWSHGDLSCQVCGILLYENIYISVGFLCCISVDRYLAVAHPFRFHQFRTLKAAVGVSVVIWAKELLTSIYFLMHEEVIEDENQHRVCFEHYPIQAWQRAINYYRFLVGFLFPICLLLASYQGILRAVRRSHGTQKSRKDQIQRLVLSTVVIFLACFLPYHVLLLVRSVWEASCDFAKGVFNAYHFSLLLTSFNCVADPVLYCFVSETTHRDLARLRGACLAFLTCSRTGRAREAYPLGAPEASGKSGAQGEEPELLTKLHPAFQTPNSPGSGGFPTGRLA

What was measured:
[1] = variants of: B1; test: cAMP reporter score (Enrich2 score, wild type = 0); higher = more signal; HEK293T, FACS bins
[2] = variants of: B1; test: surface expression score (Enrich2 score, wild type = 0); higher = more signal; HEK293T, FACS bins

With MGNITADNSSMSCTIDHTIHQTLAPVVYVTVLVVGFPANCLSLYFGYLQIKARNELGVYLCNLTVADLFYICSLPFWLQYVLQHDNWSHGDLSCQVCGILLYENIYISVGFLCCISVDRYLAVAHPFRFHQFRTLKAAVGVSVVIWAKELLTSIYFLMHEEVIEDENQHRVCFEHYPIQAWQRAINYYRFLVGFLFPICLLLASYQGILRAVRRSHGTQKSRKDQIQRLVLSTVVIFLACFLPYHVLLLVRSVWEASCDFAKGVFNAYHFSLLLTSFNCVADPVLYCFVSETTHRDLARLRGACLAFLTCSRTGRAREAMPLGAPEASGKSGAQGEEPELLTKLHPAFQTPNSPGSGGFPTGRLA [Y320M] the cAMP reporter score ([1]; pH 5.5) was 1, the cAMP reporter score ([1]; pH 6) was 0.204 and the cAMP reporter score ([1]; pH 6, modulator: ogerin) was 0.892. The cAMP reporter score ([1]; pH 6.5, modulator: ogerin) was 2.5 and the surface expression score [2] was 1.04.

Variant MGNITADNSSMSCTIDHTIHQTLAPVVYVTVLVVGFPANCLSLYFGYLQIKARNELGVYLCNLTVADLFYICSLPFWLQYVLQHDNWSHGDLSCQVCGILLYENIYISVGFLCCISVDRYLAVAHPFRFHQFRTLKAAVGVSVVIWAKELLTSIYFLMHEEVIEDENQHRVCFEHYPIQAWQRAINYYRFLVGFLFPICLLLASYQGILRAVRRSHGTQKSRKDQIQRLVLSTVVIFLACFLPYHVLLLVRSVWEASCDFAKGVFNAYHFSLLLTSFNCVADPVLYCFVSETTHRDLARLRGACLAFLTCSRTGRAREALPLGAPEASGKSGAQGEEPELLTKLHPAFQTPNSPGSGGFPTGRLA [Y320L] has a cAMP reporter score ([1]; pH 5.5) of 0.152, a cAMP reporter score ([1]; pH 6, modulator: ogerin) of -0.15 and a surface expression score [2] of 0.023.

With MGNITADNSSMSCTIDHTIHQTLAPVVYVTVLVVGFPANCLSLYFGYLQIKARNELGVYLCNLTVADLFYICSLPFWLQYVLQHDNWSHGDLSCQVCGILLYENIYISVGFLCCISVDRYLAVAHPFRFHQFRTLKAAVGVSVVIWAKELLTSIYFLMHEEVIEDENQHRVCFEHYPIQAWQRAINYYRFLVGFLFPICLLLASYQGILRAVRRSHGTQKSRKDQIQRLVLSTVVIFLACFLPYHVLLLVRSVWEASCDFAKGVFNAYHFSLLLTSFNCVADPVLYCFVSETTHRDLARLRGACLAFLTCSRTGRAREANPLGAPEASGKSGAQGEEPELLTKLHPAFQTPNSPGSGGFPTGRLA [Y320N] the cAMP reporter score ([1]; pH 5.5) was 0.825, the cAMP reporter score ([1]; pH 6, modulator: ogerin) was 2.35 and the cAMP reporter score ([1]; pH 6.5, modulator: ogerin) was 0.964. For the same variant, the surface expression score [2] was 1.13.
